About 14,000 (4.5%) of roughly 310,000 compounds showed an effect of 50% or more. The effect is printed as a negative number. This is one part of the list.
Each compound was assayed against human ether-à-go-go-related gene (hERG) potassium channel (human, UniProt Q12809) (assay: primary screen, population patch clamp on CHO cells stably expressing hERG).
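Further: peak tail current of the secondary pulse compared with the same well before compound.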

Sequence of human ether-à-go-go-related gene (hERG) potassium channel (Q12809 whole entry, looked up): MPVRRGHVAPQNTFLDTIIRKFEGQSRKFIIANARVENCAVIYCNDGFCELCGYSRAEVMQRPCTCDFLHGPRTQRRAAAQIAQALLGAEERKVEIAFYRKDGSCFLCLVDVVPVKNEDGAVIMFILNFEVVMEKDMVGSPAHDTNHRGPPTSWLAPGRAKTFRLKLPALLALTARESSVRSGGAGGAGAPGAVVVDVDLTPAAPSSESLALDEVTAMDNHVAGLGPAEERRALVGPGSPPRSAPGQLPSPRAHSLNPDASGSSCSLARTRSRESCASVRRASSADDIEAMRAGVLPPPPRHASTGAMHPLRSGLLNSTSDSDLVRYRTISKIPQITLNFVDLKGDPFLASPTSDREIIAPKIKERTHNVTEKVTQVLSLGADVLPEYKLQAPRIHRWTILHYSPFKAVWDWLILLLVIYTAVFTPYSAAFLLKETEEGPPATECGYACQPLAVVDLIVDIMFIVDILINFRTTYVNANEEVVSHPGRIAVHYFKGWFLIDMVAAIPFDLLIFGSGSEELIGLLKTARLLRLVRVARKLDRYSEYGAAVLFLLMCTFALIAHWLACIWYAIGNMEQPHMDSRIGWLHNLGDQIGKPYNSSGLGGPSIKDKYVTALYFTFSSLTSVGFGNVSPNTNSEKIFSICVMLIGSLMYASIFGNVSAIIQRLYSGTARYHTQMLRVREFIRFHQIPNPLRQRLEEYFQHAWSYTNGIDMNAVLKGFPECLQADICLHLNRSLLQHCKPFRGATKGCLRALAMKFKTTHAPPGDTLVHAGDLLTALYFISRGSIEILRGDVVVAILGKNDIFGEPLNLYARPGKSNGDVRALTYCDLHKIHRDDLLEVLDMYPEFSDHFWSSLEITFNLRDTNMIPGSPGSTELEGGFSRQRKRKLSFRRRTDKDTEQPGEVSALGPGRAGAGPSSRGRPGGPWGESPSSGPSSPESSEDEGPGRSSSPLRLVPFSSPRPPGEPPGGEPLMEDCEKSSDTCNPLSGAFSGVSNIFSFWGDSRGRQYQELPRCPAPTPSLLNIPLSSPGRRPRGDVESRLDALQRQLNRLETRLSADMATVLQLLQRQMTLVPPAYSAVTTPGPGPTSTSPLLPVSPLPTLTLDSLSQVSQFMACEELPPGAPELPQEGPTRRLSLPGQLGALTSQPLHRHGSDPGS

SMILES	hERG current change (%, negative = inhibition) at 10uM
O=C(NC1=NCCS1)c1csc2ccccc12	-13.1%
Cc1cnc(NS(=O)(=O)c2ccccc2)c(C)n1	19.5%
CCCCNS(=O)(=O)NC(=O)C1=C(N2CCCC2)COC1=O	6.34%
Cc1c(N2C(=O)CSC2c2ccc([N+](=O)[O-])cc2)c(=O)n(-c2ccccc2)n1C (centres unmarked)	-6.57%
Cc1ccc2nc(-c3ccc(NC(=O)CSc4ccccc4)cc3)[nH]c2c1	14.1%
COc1ccc(S(=O)(=O)Nc2nc3ccccc3nc2NCC2CCCO2)cc1 (centres unmarked)	5.29%
CCOC(=O)Cn1c(=NC(=O)C2CC2)sc2c(C)cc(C)cc21	14.8%
Cc1cc(NC(=O)CSc2ccc(-c3ccc4c(c3)OCO4)nn2)no1	22.2%
O=C(OCC#Cc1c(COC(=O)c2ccccc2)nnn1Cc1ccccc1)c1ccccc1	5.67%
CC1=NN(c2ccccc2)C(=O)C1(C)[N+](=O)[O-] (centres unmarked)	11.9%
O=C(NC1CCc2ccccc21)c1cc(COc2cncc(Cl)c2)on1 (centres unmarked)	3.56%
CC(=C/c1ccc(C(C)C)cc1)/C=N/NC(=O)CSc1ccccn1	-9.64%
Cc1cc(C)nc(SCc2ccc(C(=O)NNC(=O)Nc3cccc(Cl)c3)cc2)n1	5.53%
CC1(C)Cc2c(sc(NC(=O)c3ccc(C(=O)c4ccccc4)cc3)c2C#N)C(C)(C)N1	-7.79%
CC(=O)Nc1cc(C(=O)O)ccc1S(=O)(=O)c1ccc(Cl)cc1	2.83%
Cn1c(=O)[nH]c(=O)c2c1nc(N1CCOCC1)n2CC(O)COc1ccc2ccccc2c1 (centres unmarked)	-35.9%
COC(=O)c1cc(NS(=O)(=O)c2ccc(N3CCCCC3)c([N+](=O)[O-])c2)cc(C(=O)OC)c1	-4.94%
Cc1ccc(C(=O)C[n+]2ccc(Cc3ccccc3)cc2)cc1.[Cl-]	-73.6%
CC1(C)CC(=O)C(C=NCCN2CCN(CC(=O)Nc3ccc(Cl)cc3)CC2)=C(O)C1	-36.4%
COc1ccc(/C=C(/C#N)c2cccnc2)cc1OC	7.23%
N#Cc1ccccc1S(=O)(=O)N1CCC(C(=O)NCc2ccccc2CN2CCCC2)CC1	-69.1%
CCOC(=O)c1ccc(N2CCN(c3ccccc3F)CC2)c(NC(=O)Nc2cccc(OC)c2)c1	-2.55%

SMILES	hERG current change (%, negative = inhibition) at 10uM
Cc1ccc(C2C(C#N)=C(N)Oc3cc(C)oc(=O)c32)o1 (centres unmarked)	-1.43%
CN1CCN(c2ccc(Cl)cc2NS(=O)(=O)c2ccccc2Cl)CC1	-37%
O=C(NCCc1cccc(Cl)c1)c1cccs1	-8.38%
CNC(=S)N/N=C/c1ccc(-c2cccc(C(=O)O)c2)o1	-5.18%
CCN1CCN(c2ccc(NC(=O)c3cc(OC)c(OC)c(OC)c3)cc2)CC1.Cl	8.12%
C=CC[N+]1(CC#CCOC(c2ccccc2)c2ccccc2)CCOCC1.[Cl-]	-0.242%
COc1ccc(OC)c(-c2csc(-c3cccs3)n2)c1	7.93%
Cc1ccc(-c2cc(C(F)F)n3ncc(C(=O)Nc4cn(C)nc4C)c3n2)cc1	4.6%
Cc1cc(OCC(=O)Nc2ccncc2)cc(C)c1Br	12.9%
CCn1c(SCC(=O)N(C)c2ccccc2)nc2c([nH]c3ccccc32)c1=O	19.4%
C/C(=C\c1ccccc1)C(=O)NCCCn1ccnc1	-10.1%
O.S=c1nc[nH]c2nc[nH]c12	-38.7%
COc1cccc(CN2CCN(Cc3ccon3)CC2CCO)c1 (centres unmarked)	0.227%
S=C1NCN(Cc2ccco2)CN1CCc1ccccc1	12.1%
Cc1ccc(C(=O)c2ncc[nH]2)cc1	4.75%
O=c1[nH]n2c(C(F)(F)F)cc(C3CC3)nc2c1N=Nc1ccccc1	12.2%
CCC(=O)N1CCN(c2ccnc3cc(Cl)ccc23)CC1	-63.6%
CCc1cccc(OCC(=O)Nc2cc(Cl)ccc2-n2cncn2)c1	-25.6%
COc1ccccc1NC(=O)C1(C)Cc2ccccc2C(=O)O1 (centres unmarked)	-10.2%
N#Cc1ccc(NC(=S)NCCN2CCOCC2)cc1	-0.742%
FC(F)(F)C(Oc1nc(NC2CCCCC2)nc(N2CCOCC2)n1)C(F)(F)F	14.7%
Cn1c(=O)c2c(-c3ccccc3)n(-n3cnnc3)cc2n(C)c1=O	-6.8%
